Laboratory results taken from the RNAGym collection of RNA variant scans (doi:10.7554/elife.90254).
Read counts are not given, so values of variants with three or more changes are uncertain.

B1: LINE1-full (parent)
chain: UACGUAGGUGGUUUUCCCCUGAUAGUGCUAAGGGGGCCUGGAAGUUUGGACUGGGCAGAGCUCAACACAGCGUGGCAAAGUGGCUGUGGCUAGACUGCCUCUCUGGAUUCCUCGUCACUCAGCAGGGCAUCUCUGAGAGAAAUGCC

Variants of: B1
Experiment: self-cleavage, relative activity (ratio to wild type); higher = more cleavage; in vitro, sequencing; the parent is a self-cleaving ribozyme

Row | Variant | self-cleavage
1 | A57U U73C U91C | 0
2 | C56U A117G U119C A138U | 0.19
3 | A59U A67G U85A | 0.03
4 | A57U A65G U73A A121G A138G | 0
5 | A57G C111U A141G A142G | 0.77
6 | A57G A69U G144A | 0.04
7 | A57C C63U U91C | 0.02
8 | G54C G60A U102A | 0.03
9 | A57G A64G U73C A117U | 0.35
10 | A59G U73A A79U | 0.02
11 | A57U A79G C113U | 0.05
12 | A59G U96C U130C | 0
13 | A57G U112C A138G | 0.62
14 | G53U U100C U104A A140G U143C | 0.61
15 | G55A A57C U143C | 0.09
16 | A59U G80A A94G G97A A142G | 0.23
17 | G58A U62C U119C | 0.05
18 | A57G A107G A141G | 0.99
19 | U62A A79U A141G | 0.03
20 | C56U U104G U130C A136G | 0.17
21 | G53U C56U G125A | 0.18
22 | C56A U104C U134C | 0
23 | A57G G86A U96A U115C G127A | 0
24 | G54A U108A C118A | 0.24

Row | Variant | self-cleavage
25 | A57U A64G U100C U130C | 0.45
26 | U62A G80A U85C C95U U104C | 0.01
27 | A57G U81A A121C A141G | 1.58
28 | G58A U115C A117G | 0.13
29 | A59C U85C A121U | 0.16
30 | A59G A64U U102C | 0.06
31 | A57G U109A C116A A117G A142G | 0.25
32 | A59U U109C A142G | 1.15
33 | A57U U81C A92U | 0.08
34 | A59G U100C U115A U132C | 0
35 | A57G U85C U100C | 0.84
36 | A57U A64U U112C A140G | 0.05
37 | A59U A94G U112C | 2.01
38 | G54A U115C A138G | 1.48
39 | A57G G83A U104C | 0.54
40 | U62A A79G A129U U130C | 0
41 | A57G U104C G122U | 0.7
42 | A57G A67U U109C | 0.15
43 | A57U U115C A141G | 0.07
44 | A57U U112C A141G | 0
45 | A57U U85C U132C | 0.1
46 | A57U A77G U100A | 0
47 | G54A U115C U119C A141G | 1.93
48 | G60A U115C A124G | 0

Row | Variant | self-cleavage
49 | U62A A78U U115C | 0.02
50 | A57G U62C U112A | 0.04
51 | A57U G58U U132A | 0.03
52 | G53U U109C U134C | 1
53 | A57G U62A U102A | 0.13
54 | A57U A65G U104C | 0
55 | A57G G58A A140G | 0.09
56 | A59G A67G A78G | 0.12
57 | A57G G58A A67G | 0.09
58 | U62A G88A A141G | 0.04
59 | G54A A77G A140G | 0.77
60 | A59G U62C U119C | 0.05
61 | A57U A64G A79G U81C A141G | 0
62 | A59G C110A A138G | 0.07
63 | A57U A78U C90G | 0.06
64 | A57G C71A A92G G93U U104C A141G | 0
65 | A57U A59G A92G | 0.16
66 | A57G C66A U81C U109A | 0.04
67 | A57G U115C A140G | 0.77
68 | U62A A79G A138G | 0.07
69 | G54C A94G U119A A124U A136G | 1.28
70 | G60A A69G A77G U104G | 0.37
71 | A57G A78G A94G | 0
72 | A59U U85C U143C | 0.24

Row | Variant | self-cleavage
73 | A59U U130C A142G | 1.29
74 | A57G A117G A138G | 0.97
75 | A57U A59G U132G | 0
76 | G58U U100C A124G | 0.01
77 | G53U U112C U134C A142G | 1.06
78 | A57G A59G U115C A117U | 0.16
79 | U62A A94G U134A | 0
80 | A57C U73A A79U U102C U143C | 0.05
81 | A59G A64G U81C | 0
82 | A57U A77U A107G U112C | 0.15
83 | A57G C71U U96C U130C | 2.63
84 | A57G U132C C133A U143C | 0.63
85 | A59G U104A A121U | 0.09
86 | U62A U81G A94U | 0.04
87 | A59G C120U A129G | 0.08
88 | A57G A64U A65G U100C C103A | 0.13
89 | A57U U73G U104A | 0.02
90 | A59G A65U U85C | 0.2
91 | A59U A69G U130C | 0.55
92 | A57G A59G A138G | 0.17
93 | A59G G122U A141G | 0.02
94 | A57U A92G U100C A138G | 0.13
95 | A59U U62C U73C A107G A142G | 0
96 | A59G A78G A142C | 0.13

Row | Variant | self-cleavage
97 | G55U G70U U87A U109C | 0.01
98 | G54A U85C U104G | 0
99 | A59G U109A U119C A121U | 0.14
100 | C56U A92G U102C A140G | 0.04
101 | U62C A64U U104C U134A A140G A142G | 0
102 | A59G A129G U134C | 0.1
103 | U62A A77G U96C | 0.16
104 | A59G U96C A121U | 0
105 | A57U U81A U112C | 0.12
106 | G53U A65G A141G | 0.11
107 | C56U U85C A117C A136G | 0.06
108 | A57U G89U U130C G137U | 0.03
109 | A59G A117C A141G | 0.07
110 | A59G A67U U109C | 0
111 | A57G C128U U132C A140G | 0.69
112 | A59G U62C U134C | 0
113 | G58A U104C U108C | 0.05
114 | G53U A129U A138G A142G | 1.19
115 | A57G C110A A136G | 1.3
116 | A59U U85A U108C | 0.13
117 | G58U A92U A94G U130C A142U | 0.12
118 | G55A A59G G137A | 0.03
119 | G55C A79G G126U | 0.11
120 | A59G U119C U130A U132C | 0

Row | Variant | self-cleavage
121 | A59U A67C G89C | 0.06
122 | A59G G83U A138G | 0.05
123 | A57U A79G A129G | 0.09
124 | A57G C84G A138G | 0.03
125 | C56U A79G C101U | 0.1
126 | A57G C84G U85C | 0.14
127 | U62A U115C U143C | 0.02
128 | G60A C113U A136U | 0.03
129 | A59G U100C U119C G125A | 0
130 | A57U A64U U73A U115C | 0.08
131 | A59U C99U U109C | 0.39
132 | G54A A67C A79G G114U | 0.15
133 | A57G U87C A117U U130C | 0
134 | A59G A140G U143A | 0.07
135 | U62C A65G A69C | 0.4
136 | A57G A64U A77G A129G | 0.14
137 | A59G C118U A136U | 0.12
138 | G53U C95G A107G U134C | 0.05
139 | A57U C71U U108C U119C A141G | 0.12
140 | U62A A121U A136G | 0.02
141 | U62A U87A U132C | 0.02
142 | A57G A64U G83A A129U | 0.06
143 | G58A C84A U85A | 0.03
144 | A59G U62A A78G U102C A129U | 0

Row | Variant | self-cleavage
145 | A59U A69G U132C | 0.53
146 | A59G A142G U143C | 0
147 | U62A A78G U115C U143A | 0.06
148 | A59G A65G U104A | 0
149 | A57G A78U C90U | 0.03
150 | A57U C101U A141G | 0.19
151 | G60A U73C U109C A136G | 0.02
152 | G58A A65G A67G C84U A140U | 0.02
153 | A59G U100A U102A | 0.17
154 | A57U G106U U119A | 0.11
155 | C56A A67G A92G | 0.18
156 | A57G C131U U143C | 0.77
157 | A59G A136G A140G | 0.09
158 | A59G A79G U104C G126A | 0.05
159 | A59G U119C G126A | 0.3
160 | G53A U96A C98U | 0.03
161 | U62A U108C U132A | 0.04
162 | U62C A64U U85C | 0.06
163 | A57U U87C U115A | 0.09
164 | G60C A92G U96C A107G C128A | 0.12
165 | A57G A77U U100C | 1.73
166 | A57G A64G C98A | 0.11
167 | A59U G60A U115A | 0.07
